Measured values reported in the supplement of paper PMC12217912.
Some of the results follow. Sequences were assembled here from the parent chain. Inactive controls read about 0.05.

B1: TEV protease; numbered along this chain (parent)
chain: MGESLFKGPRDYNPISSSICHLTNESDGHTTSLYGIGFGPFIITNKHLFRRNNGTLVVQSLHGVFKVKDTTTLQQHLVDGRDMIIIRMPKDFPPFPQKLKFREPQREERICLVTTNFQTKSMSSMVSDTSCTFPSGDGIFWKHWIQTKDGQCGSPLVSTRDGFIVGIHSASNFTNTNNYFTSVPKNFMELLTNQEAQQWVSGWRLNADSVLWGGHKVFMVKPEEPFQPVKEATQL

Variants of: B1
Test: raw area under fraction-flipped curve 0-4 h after induction (AUC4h, not background-subtracted), DNA-recorder readout of cleavage of the substrate (dimensionless); higher = more cleavage of the substrate by the protease variant
Settings: temperature: 34 °C; time window: 0-4 h after rhamnose induction
Description: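 In vivo DNA recorder in E. coli TOP10(DE3) ΔrhaA at 34 °C. Each TEVp single-site mutant (parent TEVp 0) is paired with a single-site variant of the 7-mer TEVs (canonical ENLYFQ|S). The substrate sits between flexible linkers in a Bxb1-sfGFP-TEVs-SsrA fusion, so cleavage stabilises Bxb1 and speeds flipping of a recombination array, read by NGS. The value is the raw area under the fraction-flipped curve over 0-4 h after rhamnose induction (AUC4h), with ≥20 reads per time point. It is not background-subtracted; inactive controls average about 0.047.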
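Also: Bxb1 expression induced with 0.2% (w/v) L-rhamnose at OD600 near 0.5, cultures sampled hourly, flipped fraction per protease–substrate barcode pair counted by paired-end Illumina sequencing.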

Variant	area with substrate ENLYAQS	area with substrate ENLYDQS	area with substrate ENLYEQS	area with substrate ENLYGQS	area with substrate ENLYIQS	area with substrate ENLYMQS	area with substrate ENLYNQS	area with substrate ENLYPQS	area with substrate ENLYRQS	area with substrate ENLYSQS	area with substrate ENLYWQS	area with substrate ENLYYQS	area with substrate ENLYHQS	area with substrate ENLYKQS	area with substrate ENLYLQS	area with substrate ENLYTQS	area with substrate ENLYQQS	area with substrate ENLYVQS	area with substrate ENLYCQS
W212Y	0.0853	0.0476	0.094	0.0662	0.131	0.0657	0.0635	0.0703	0.0697	0.0909	0.0661	0.0652	–	–	–	–	–	–	–
W212T	0.0543	–	0.0624	–	0.0697	–	0.0712	0.0679	–	0.0709	0.0675	–	0.0612	0.0594	0.06	0.0745	–	–	–
W212I	0.0947	–	0.0762	0.0575	–	0.0807	0.0726	0.0762	0.074	–	–	0.0821	0.0794	–	–	–	0.064	0.163	–
W212H	0.0483	0.0763	0.0624	–	–	–	0.0559	0.0592	0.0514	–	–	0.057	0.0594	–	0.0431	–	–	–	–
F49N	–	0.0487	0.0532	–	0.0553	0.0628	0.0552	0.0529	0.0443	–	0.0701	–	0.0596	0.0596	0.0697	0.0562	0.0528	0.0536	0.0491
F49T	–	0.0582	0.0698	0.0597	0.0564	0.096	0.0575	0.0655	0.0504	–	–	–	0.0393	0.0596	–	–	0.0487	0.0567	0.0528
V58Y	–	0.0518	–	–	0.0817	0.0576	0.0448	0.0554	–	–	–	–	0.054	–	–	–	0.0388	0.0672	0.0487
K221P	0.115	0.131	0.0486	0.0768	0.0823	0.0669	0.0597	0.0656	–	0.0727	0.0702	–	0.0639	0.0503	0.0645	0.0714	0.0617	0.11	0.0622
T31Y	–	0.0581	0.0549	–	0.1	0.0894	0.0641	0.079	0.0539	–	0.0799	0.0958	0.057	0.0649	–	–	0.0495	–	0.0732
N53K	–	0.0601	0.0641	0.0629	0.0049	–	0.0577	0.0625	–	–	–	–	0.058	0.0607	0.0747	0.0726	–	0.0715	0.0755
N53P	–	0.0516	0.0694	0.0452	0.0901	0.103	0.0609	–	0.0486	0.0753	0.0827	0.0744	–	–	0.0532	–	–	0.0858	0.0659
M83N	–	0.0515	0.0515	0.0476	–	0.0429	0.0442	0.0469	–	0.0392	0.0543	0.0301	0.0508	0.0509	0.0634	–	–	0.0616	0.0533
N206M	0.0047	–	–	–	–	–	–	0.092	–	–	0.0607	–	–	–	–	0.0791	0.061	–	–
N206D	0.0975	0.067	0.0731	0.0701	–	0.103	0.0729	0.0625	0.0606	0.0823	0.127	0.0696	0.0628	0.061	–	0.0907	–	0.104	–
N206V	0.0482	–	0.0668	–	0.121	–	0.0529	0.0591	0.0666	0.0657	0.0525	–	–	–	–	–	–	0.0103	0.08
L5G	–	–	0.0704	–	–	0.0753	0.0752	0.0485	0.0646	0.0759	0.0805	0.0759	0.108	0.0664	–	–	–	0.121	0.0983
F218Q	0.0602	0.0592	0.0616	0.0653	0.0719	0.0552	0.0561	0.0715	0.0257	–	0.0517	–	–	0.0734	0.0672	0.0716	0.0615	0.0989	–
D208A	0.0714	0.064	–	–	0.0625	–	–	0.062	–	–	–	–	–	–	–	–	–	0.0569	–
F95E	–	0.0519	0.054	0.0492	–	0.0414	0.0401	0.0263	0.0606	0.0494	0.0379	0.0531	0.055	0.0451	–	0.0661	–	0.0526	0.0696
G214T	0.0745	–	0.0819	–	–	0.0729	0.0618	–	–	0.0473	–	0.0525	0.0706	0.0652	–	–	0.0432	0.0537	0.0731
G214I	0.0575	–	0.0547	–	0.0904	–	–	–	0.0546	–	0.0546	–	–	–	–	–	–	–	–
V220F	0.078	–	0.0648	0.0692	0.113	0.0854	0.0718	0.075	0.0461	0.071	0.0774	0.0567	0.0586	0.0617	–	–	0.063	–	–
V220K	0.0817	–	0.0695	0.053	0.126	0.082	0.0614	0.0832	0.0607	–	0.0921	0.06	0.063	0.0213	–	0.11	0.0664	–	–
I84Y	–	0.0629	–	–	0.0599	0.0686	0.0533	0.047	–	–	0.0714	0.062	0.0528	–	0.0425	–	–	–	0.0664
Q234P	0.0718	–	0.0722	–	0.107	0.0566	0.0721	0.0798	0.0685	0.0712	0.0749	–	0.05	0.0585	–	0.0843	0.0555	0.0931	–
R50A	–	0.0649	0.0752	–	–	0.0837	0.0715	0.0551	0.0627	0.0785	0.0564	–	0.0724	0.051	–	0.0762	0.0792	–	0.0866
G213E	0.058	–	0.0421	0.0674	–	–	–	–	0.059	–	0.0707	–	0.0595	–	–	–	0.0719	0.0396	–
K46G	–	0.0627	0.0642	–	–	–	0.0593	0.0661	0.0514	0.0627	–	–	0.064	0.0494	0.0734	0.0653	0.0776	0.0852	0.0695
R51E	–	0.0595	0.0719	0.0623	0.111	0.0698	–	0.0578	0.0649	0.0802	–	–	0.0689	0.0697	0.0846	–	0.0568	0.15	0.13
